Laboratory results from paper PMC4336329 (PLoS ONE, 2015).
In all, about 310,000 compounds went through this assay and about 2,200 (0.71%) showed an effect of 50% or more. The effect is printed as a negative number. The list shows a part of the results.

Target: human ether-à-go-go-related gene (hERG) potassium channel (human, UniProt Q12809)
Assay: primary screen, population patch clamp on CHO cells stably expressing hERG

human ether-à-go-go-related gene (hERG) potassium channel, sequence (Q12809 whole entry, looked up): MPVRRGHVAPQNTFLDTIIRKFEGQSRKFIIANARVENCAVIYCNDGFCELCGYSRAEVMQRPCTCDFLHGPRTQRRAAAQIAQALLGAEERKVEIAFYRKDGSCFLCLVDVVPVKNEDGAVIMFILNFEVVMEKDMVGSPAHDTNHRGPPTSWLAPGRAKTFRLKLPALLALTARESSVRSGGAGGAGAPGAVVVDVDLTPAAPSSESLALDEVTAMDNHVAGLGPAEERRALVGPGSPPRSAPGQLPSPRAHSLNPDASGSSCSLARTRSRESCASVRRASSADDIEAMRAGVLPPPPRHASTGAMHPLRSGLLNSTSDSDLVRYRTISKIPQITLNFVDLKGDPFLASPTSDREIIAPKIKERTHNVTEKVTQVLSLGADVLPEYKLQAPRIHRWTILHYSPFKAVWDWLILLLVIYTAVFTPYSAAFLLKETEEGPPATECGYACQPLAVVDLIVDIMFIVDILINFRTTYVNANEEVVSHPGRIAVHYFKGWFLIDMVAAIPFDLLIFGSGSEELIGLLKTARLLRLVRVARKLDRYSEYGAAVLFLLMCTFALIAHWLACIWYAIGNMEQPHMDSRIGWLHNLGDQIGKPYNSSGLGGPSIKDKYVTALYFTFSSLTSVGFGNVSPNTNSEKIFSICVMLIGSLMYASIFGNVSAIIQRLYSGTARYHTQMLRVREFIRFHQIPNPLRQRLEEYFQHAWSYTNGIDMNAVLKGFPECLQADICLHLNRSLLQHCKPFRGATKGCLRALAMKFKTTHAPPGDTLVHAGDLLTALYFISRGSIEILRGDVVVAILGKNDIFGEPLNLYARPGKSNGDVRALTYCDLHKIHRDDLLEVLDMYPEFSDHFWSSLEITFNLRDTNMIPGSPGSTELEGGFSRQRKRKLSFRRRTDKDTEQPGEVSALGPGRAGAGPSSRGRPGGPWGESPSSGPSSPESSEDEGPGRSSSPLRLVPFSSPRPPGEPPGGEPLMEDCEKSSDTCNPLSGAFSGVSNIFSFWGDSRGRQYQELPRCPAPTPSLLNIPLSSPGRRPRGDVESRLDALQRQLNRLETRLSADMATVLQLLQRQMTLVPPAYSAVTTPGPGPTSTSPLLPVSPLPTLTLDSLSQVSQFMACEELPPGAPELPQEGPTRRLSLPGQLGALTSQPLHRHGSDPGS

Structure (SMILES) | hERG current change (%, negative = inhibition) at 1uM
CCCNC(=O)c1ccc(COc2cccc3ccccc23)o1 | 12.3%
O=C(O/N=C/c1ccc2c(c1)OCO2)c1ccccc1Cl | 4.97%
CCCN(CCC)S(=O)(=O)c1ccc(Cl)c([N+](=O)[O-])c1 | 12%
COc1ccc(C(CNC(=O)c2ccc(N3CCCC3=O)cc2)N2CCCC2)cc1 (stereo not drawn) | 12.1%
COc1ccc(CCNS(=O)(=O)c2cc(C(=O)O)c(Cl)cc2Cl)cc1 | 7.89%
C=CCN1C=C2C(=O)C(C)(OC(=O)c3cnc4ccccc4n3)C(=O)C=C2C=C1/C=C/COC (stereo not drawn) | 7.46%
c1ccc(OCc2nc(-c3ccccc3)no2)cc1 | 16.5%
Cc1ccc(N(C(=O)CNC(=O)c2ccco2)C(C(=O)NC2CCCCC2)c2ccncc2)c(C)c1 (stereo not drawn) | 9.97%
CCN1C(=O)CC(n2c(C)nc3ccccc32)C1=O (stereo not drawn) | 11%
COc1ccc(Cl)cc1NC(=S)N1CCN(c2ncccn2)CC1 | 13.9%
CCN1CCN(c2nc3ccccc3n3cnnc23)CC1 | 4.56%
CC1=C(C)C(=O)OC(C(C)C2CCC3C4CC=C5CC(OC6OC(COC7OC(CO)C(O)C(O)C7O)C(O)C(O)C6O)CC(O)C5(C)C4CCC23C)C1 (stereo not drawn) | -7.4%
C/C(=N\NC(=O)CNC(=O)c1ccccc1F)c1ccco1 | 8.73%
CSc1nnc(CSc2cc(C)nc(N(C)C)n2)o1 | -5.44%
CCOc1ccccc1Nc1nc(-c2sc(NC(=O)c3ccco3)nc2C)cs1 | 15.3%
Cc1ccc(OCCn2nnc3ccccc32)cc1C | 8.27%
COc1cc2c(cc1NS(=O)(=O)N1CCCCC1)oc1ccccc12 | -1.53%
O=C(COc1ccc2ccccc2c1)N1CCN(c2ccccc2O)CC1 | 11%
O=C(CCc1ccc(S(=O)(=O)N2CCOCC2)cc1)Nc1ccc2ccccc2c1 | -3.84%
CCc1ccc2[nH]c(C(=O)Nc3ccc(F)cc3Br)cc2c1 | 18.5%
O=C(c1cc(COc2c(F)cccc2F)on1)N1C[C@H]2CC[C@H]1C2 | -3.54%
COc1cccc(/C=N/n2cnc3cc(C)c(C)cc32)c1OC | 18.5%

Structure (SMILES) | hERG current change (%, negative = inhibition) at 1uM
CC1=C(C#N)C(c2cccnc2)C2=C(CCCC2=O)N1 (stereo not drawn) | 2.43%
COc1ccc(OC)c(Nc2nc3nonc3nc2N2CCCC(C)C2)c1 (stereo not drawn) | 12.8%
O=C(CSc1nc(C2CCCCC2)nc2ccccc12)NCc1ccc2c(c1)OCO2 | 13.9%
COc1ccc(C(=O)C2CCCN(Cc3ccccn3)C2)c(OC)c1 (stereo not drawn) | -3.83%
O=c1ccc(NS(=O)(=O)c2ccccc2Cl)cn1Cc1ccc(Cl)c(Cl)c1 | 1.92%
C/C=C/C=C/C(=O)Nc1cccc(C2=NOC3(C2)C[C@H](C(N)=O)N(C(=O)CC(c2ccccc2)c2ccccc2)C3)c1 (stereo partly drawn) | 16.4%
CC(C)CCn1c(SCC(=O)NC2CCS(=O)(=O)C2)nc2cc(Cl)ccc2c1=O (stereo not drawn) | 6.59%
O=C(CN1CCCCCCC1)Nc1cccc(Cl)c1Cl | 10.2%
COC(=O)C1CCN(C(=O)COC(=O)CC(NC(N)=O)c2ccc(Cl)cc2)CC1 (stereo not drawn) | 9.18%
O=C(CSc1ccc(Cl)cc1)Nc1cccc(-c2nc3ccccc3[nH]2)c1 | 8.3%
CCCCOC(=O)Nc1nnc(CC(=O)NCc2ccccc2)s1 | 9.19%
Cc1ccccc1CS(=O)(=O)c1ncc(Cl)c(C(=O)Nc2ccc(F)cc2)n1 | 33.9%
CCc1ccc(-n2ccc(=O)c(C(=O)O)n2)cc1 | 16%
CCOC(=O)C(NC(C)=O)C(=O)Nc1ccc(C(C)C)cc1 (stereo not drawn) | 16.8%
CC(=O)/C=N/Nc1ccccc1 | -8.81%
COc1cc(/C=N/N=C/c2cc(OC)c(O)c(OC)c2)cc(OC)c1O | 9.21%
O=C(COC(=O)c1cccnc1Cl)NCc1ccco1 | 14.8%
CCC1SC(CC)C(=O)N(CC(=O)NCc2ccc(F)cc2)C1=O (stereo not drawn) | 4.42%
CCCC(=O)c1ccc(N2CCN(S(=O)(=O)c3ccc(C)cc3)CC2)c(F)c1 | 7.96%
CC1CC(=O)Nc2ccccc2N1C(=O)CN1CCN(c2ccccc2)CC1 (stereo not drawn) | 11.2%
COC(=O)C(C)Oc1ccc2cc(-c3ccccc3)c(=O)oc2c1 (stereo not drawn) | 12.5%
Cc1ccc(Cn2cnc3c(cnn3C(C)(C)C)c2=O)cc1 | 14.3%

Structure (SMILES) | hERG current change (%, negative = inhibition) at 1uM
CCOC(=O)c1c(NC(=O)CSc2nnc3c(n2)[nH]c2ccccc23)sc2c1CCN(C)C2 | 8.73%
Cn1c(CCc2ccccc2)nnc1SCC(N)=O | 11.9%
Clc1cccc(CN2CCN(c3nc4nonc4nc3NC3CC3)CC2)c1 | 9.02%
Cc1ccc(C(C(=O)NC2CCCCC2)N(Cc2ccco2)C(=O)Cn2cnc3ccccc32)cc1 (stereo not drawn) | 12.6%
Cc1ccc(/C=C/c2onc(C)c2S(=O)(=O)N2CCC(C(=O)NC(C)(C)C)CC2)cc1 | 4.91%
CC1(C)CC(=O)c2c(O)cc(OCc3ccc([N+](=O)[O-])cc3)cc2O1 | 20.5%
Cc1ccc(Cl)cc1NC(=O)CCC(=O)Nc1cc(Cl)ccc1C | 12.5%
O=C(Cn1cnc2ccccc21)N/N=C/c1cccs1 | 11.5%
Cc1nn(C2CCS(=O)(=O)C2)c(Cl)c1/C=C/C(=O)OCC(=O)Nc1ccccc1[N+](=O)[O-] (stereo not drawn) | 15.5%
Cc1cc(Sc2nnc(/N=C/N(C)C)s2)c2ccccc2n1 | 11.2%
CCN(CC)S(=O)(=O)c1ccc(C)c(NC(=O)COc2ccc(Cl)cc2Br)c1 | 9.3%
COc1cc2c(cc1OC)-c1cc(N3CCc4ccccc43)nc(=O)n1CC2 | 13.7%
COc1cccc(NC(=O)c2c(F)cccc2F)c1 | 3.18%
O=C(NC1CCCCC1)c1cc2cc(Br)ccc2o1 | 17.5%
Cc1cccc(N2CCN(C(=O)Cc3ccc(-n4c(=O)[nH]c5ccsc5c4=O)cc3)CC2C)c1 (stereo not drawn) | 4.54%
N#C/C(=C\c1ccc(F)cc1)c1n[nH]c(Cn2cncn2)n1 | 11.3%
Nc1ccc(C(=O)OCC(=O)Nc2ccc([N+](=O)[O-])cc2C(F)(F)F)cc1 | 3.48%
CCC(C)[C@@H](CN(N=O)[C@@H](Cc1ccccc1)CN(C)N=O)N(CCc1ccccc1)N=O.[Na+] (stereo partly drawn) | 4.62%
C/C(=N\NC(=O)C1CC1c1ccccc1)c1cccc([N+](=O)[O-])c1 (stereo not drawn) | 14.4%
CCOCCCNC(=O)c1ccc(CS(=O)(=O)Cc2ccccc2F)o1 | 0.194%
COC(=O)c1nn(-c2ccccc2)c(=O)cc1Oc1ccc(Cl)cc1 | -7.65%
O=C(CCn1c(=S)[nH]c2cc3c(cc2c1=O)OCO3)NCc1cccc(Cl)c1 | 11%

Structure (SMILES) | hERG current change (%, negative = inhibition) at 1uM
COc1ccccc1N1CCN(c2ncc(C(=O)N3CCN(c4cccc(Cl)c4)CC3)c3ccccc23)CC1 | 2.99%
CC(=O)Nc1ccc(Cc2nc3ccccc3[nH]2)cc1 | 17.5%
Cn1c(=O)c2c(nc(Oc3cccc(Br)c3)n2C)n(C)c1=O | 2.29%
CCOC(=O)c1sc(=NC(=O)c2ccc(S(=O)(=O)N(C)c3ccccc3)cc2)n(C)c1C | 14.6%
COc1ccccc1CNC(=O)CSc1ccc(-c2ccccn2)nn1 | 4.54%
COC(=O)NCC(c1ccco1)N1CCN(c2ccccc2)CC1 (stereo not drawn) | 11%
COc1nc(C)ccc1-c1noc(-c2ccncc2)n1 | 6.2%
CSCCC(NC(=O)COc1ccccc1)C(=O)Nc1ccc(C)cc1 (stereo not drawn) | 5.05%
COc1ccc(OC)c(-c2nn(-c3ccccc3)cc2C(=O)N2CCc3ccccc3C2)c1 | 9.32%
CCN(C(=O)CSc1cc(-c2ccccc2)c2ccc(OC)cc2n1)C1CCS(=O)(=O)C1 (stereo not drawn) | 2.06%
Cc1ccc(NC(=O)Nc2ccccc2)cc1[N+](=O)[O-] | 12.9%
Cc1cc(=O)[nH]c2c3ccccc3nn12 | 13.1%
C/C(=N\Nc1ccc(C)c(Cl)c1)c1ccncc1 | 21.7%
CC(=O)Nc1cccc(NC(=O)CSc2nccn2Cc2ccc(F)cc2)c1 | 10.9%
Cc1ncc(CN2CCC(CO)(CCc3ccccc3)CC2)s1 | -15.3%
CCOC(=O)N1CCN(S(=O)(=O)c2ccc(C(=O)N(CCCN(C)C)c3nc4ccc(OC)cc4s3)cc2)CC1.Cl | -36.7%
O=C(Cn1cnc2ccccc2c1=O)NCc1ccc2c(c1)OCO2 | 11.9%
Cc1ccc(OCCCCN2CCC(C)CC2)c(Br)c1.O=C(O)C(=O)O | -31.1%
N#Cc1ccc(-c2csc(NC(=O)C3CC3)n2)cc1 | 14.3%
CC(=O)CN1Cc2ccccc2/C1=N\C(=O)Nc1ccccc1 | 13.9%
CCOC(=O)C(=O)Nc1nnc(SCc2ccc(F)cc2)s1 | 8.83%
